According to the supplement of paper PMC10300432:

B1: C5322 (protein)
chain 1: EVQLVESGGGLVQPGGSLRLSCAASGFTFSTYDMHWVRQPTGKGLEWVSAIGTSGDTYYPGSVKGRFTISRENAKNSLYLQMNSLRAGDTAVYYCARVDYTGSCSGGTCRSYWYFDLWGQGTLVTVSS
chain 2: DIQMTQSPSALSASVGDRVTITCRASQTISSYLNWYQQKAGKAPKLLIYAASNLQSGVPSRFSGSGSGTDFTLTISSLQPEDFATYYCQQTYSFPPEYPFGQGTKLEI
B2: C5277 (protein)
chain 1: QVQLVQSGAEVKKPGASVRLSCKASGYTFTSSYIHWVRQAPGQGLECVGIINPSGGSTTYPQKFQGRVTMTRDTSSSTVYMELSSLRSEDTAVYFCAREGCSRTTCYDYWGQGTLVTVSS
chain 2: SYELTQPPSVSVAPGQTARITCGENNIGSKSVHWYQQKPGQAPVLVVYDDSDRPSGIPERFSGSNSGNTATLTISRVEAGDEADYYCQVWDGSTDQHVVFGGGTKLTVL
B3: C5323 (protein)
chain 1: QVQLVQSGAEVKKPGSSVKVSCKASGGTFSSYSITWVRQAPGQGLEWMGRIMPMLGIATYAQRFQGRVTITADTSTSTAYMELSSLRSEDTAIYYCAREGYYDSVTYPSLPTEKFDYWGQGTLVTVSS
chain 2: QSVLTQPPSVSGAPGQRVTISCTGTNSNIGAGYDVHWYQQLPGTVPKLLIYGNSNRPSGVPDRFSGSKSATSASLAITGLQAEDEADYYCQSYDSSLSASLFGGGTKLTVL
B4: C5321 (protein)
chain 1: EVQLVESGGGLVQPGGSLRLSCAASGFTFSSYSMNWVRQAPGKGLEWVSYISTSRRTIYYADSVKGRFTISRDNAKNSLYLQMNSLRAEDTAVYYCARDWYPDYYDSSGYYPNIYFDYWGQGTLVTVSS
chain 2: EIVLTQSPGTLSLSPGERATLSCRASQTYSGNYLTWYQQKPGQAPRLLIYGASSRATGIPDRFSGSGSGTDFTLTISRLEPEDFAVYYCQQYGSSPPTFGGGTKVEIK
B5: C5270 (protein)
chain 1: EVQLLESGGGLEQPGGSLRFSCAASGFTFSSYAMSWVRQAPGKGLEWVSVISGSGDSTYYADSVKGRFTISRDNSKNTLYLQMNSLRAEDTAVYYCAKSSYYYDSSVMRSLLVSSFDYWGQGTLVTVSS
chain 2: QSALTQPASVSGSPGQSITISCTGTSSDVGFYKYVSWYQQHPGKAPKLMLYEVSNRPSGVTDRFSGSKSGNTASLTISGLQAEDEADYYCSSYTSSSTYVVFGGGTKLTVL
B6: C5273 (protein)
chain 1: QVQLVETGGGVVQPGTSLRLSCVASGFTFRHYAMHWVRQAPGKGLEWVAVTSYDESHKYYVDSVKGRFTISRDDSKNTLYLQMNSLRPEDTAVYFCAKASGGPYCAAGDCYSPRDGYDYWGQGTLVTVSS
chain 2: DIQMTQSPSSVSASVGDRVTITCRASQGINSWLAWYQQKPGKAPKLLIYDASSLESGVPSRFSGSGSGTDFTLTISGLQPEDYATYYCQQANSFPFTFGPGTKVDIK
B7: C5271 (protein)
chain 1: EVQLVESGGGLVQAGGSLRLSCAASEILVSRNYMTWVRQAPGMGLEWVSVLYAGGSAFYADSVKGRFTVSRDNSKNTLFLQMNSLRDEDTAVYYCARDLSVAGALDIWGQGTMVTVSS
chain 2: DIQLTQSPSFLSASVGDRVTITCRASQGISSYLAWYQQKPGKAPKLLIYAASTLQSGVPSRFSGSGSGTEFTLTISSLQPEDFATYYCQELNSYPLTFGGGTKVEIK
B8: C5272 (protein)
chain 1: EVQLVQSGAEVKKPGESLKISCKGSGYRFANYWIGWVRQMPGKGLEWMGIIHPGDSDTRYSPSFQGLVTISADKSISTAYLQWSSLKASDTAMYYCATMLIEGYSGYELYFYFDYWGQGTLVTVSS
chain 2: SYELTQPPSVSVSPGQTARITCSGDAFPTQYAYWYQQKPGQAPVLVIYKDSERPSGIPERFSGSSSGTTVTLTISGVQAEDEADYYCQSADSRLWVFGGGTKLTVL
B9: C5275 (protein)
chain 1: EVQLVESGGSLVQPGGSLRLSCAASGFTFSGYDMHWVRQATGRGLEWVSGISPGGDPFYRGSVKGRFTISRKNAKNSLYLQMNSLRAGDTAVYYCVRSHVSPLTGALDVWGKGTTVTVSS
chain 2: SYELTQPPSVSVAPGQTARITCGGDDLGSKNVHWYQQKPGQAPVLVVYDDSDRPSGIPERFSGSNSGNTATLTISRVEAGDEADYYCQVWDSSSDPWVFGGGTTLTVL
B10: C5276 (protein)
chain 1: QVQLVQSGAEVKQPGASVKLSCRASGYTFTDYYIHWVRQAPGQGLEWMGIINPSGGSRSYAQKFQGRVTMTRDTSTSTVYMELSSLRSEDTAVYFCAREGIVVAHGRFDSWGQGTLVTVSS
chain 2: B9 chain 2 with D25N, D26E, L27I, N31S, R76G, W97Y, G101T, T104K, L105V
B11: C5278 (protein)
chain 1: EVQLVESGGGLVQPGRSLRLSCAASGFTFDDYAIHWVRQPPGKGLEWVSGSSWNSGTIGYADSVKGRFIISRDNAKNSLYLQMNSLRAEDTALYYCAKDIRGPYDRTEEGAFDIWGQGTMVTVSS
chain 2: B9 chain 2 with D25N, D26N, L27I, N31S, N65K, S93N, P96H, W97R, T104K
B12: C5274 (protein)
chain 1: EVQLVESGGGLIQPGGSLRLSCAASGLTVDSNYMSWVRQAPGKGLEWVSQIYSGGSSFYADSVKGRFTISRDSSKNTLYLQMDSLRAEDTAVYYCAREGAGSGSHGFFDFWGQGTLVTVSS
chain 2: DIQLTQSPSFLSASVGDRVTITCRASQGISNYIAWYQQKPGKAPNLLIYAASTLQSGVPSRFSGSGSGTEFTLTISSLQPEDFATYYCQQLNNYPPYTFGQGTKLEIK
B13: C5049 (protein)
chain 1: QVQLVQTGAEVKKPGASVKVSCKASGYTFSAYYIHWIRQAPGHGLEWMGWIDPKSGGTNFAQKFRGRVSMTIDTSISTAYMDLSRLRPDDTAVYYCARDSGNSWNDVDWFDPWGQGTLVTVS
chain 2: DIQMTQSPSSLSASVGDRVTIPCRASQNISRDLNWYQQRPGKAPKLLIYAASNLQSGVPSRFSGSGSGTDFTLTISNLQPEDFAIYYCQQYYSIPPYTFGQGTKLEIK
B14: C5325 (protein)
chain 1: QVQLVESGGGVVQPGRSLRLSCAASGFTFSSFAMHWVRQAPGKGLEWVAIISYDGVKEFYANSVKGRFTISRDNSKNTLFLQMNSLRAEDTAVYYCARDRQYIWGGYRSSLFYYGMDVWGQGTTVTVSS
chain 2: DIQMTQSPSSLSASVGDRVTIICQASQDINNYLNWYQQKPGKAPKLLIYDASDLETGVPSRFSGSGSGTDFTFTISSLQPEDIARYYCQQYDTLPFTFGGGTKVEI
B15: C5324 (protein)
chain 1: QVQLVESGGGVVQPGRSLRVSCAASGFTFRSYVMHWVRQAPGKGLEWVAGQLYDGSNQYYADSVKGRFTMSRDNSKNTLYLQMNSLRAEDTAVYYCAKQGGGTYCSGGSCYSSYFDYWGQGTLVTVSS
chain 2: DIQMTQSPSTLSASVGDRVTITCRASQSISSWLAWYQKKPGKAPKLLIYEAYNLESGVPSRFSGSGSGTEFTLTISSLQPDDFATYYCQQYNSYSTFGQGTKVEIK

Each binder was assayed against SARS-CoV-2 Omicron BA.1 spike pseudovirus (assay: pseudovirus neutralization IC50; higher = weaker neutralization).
Description: (§1)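 Single-round luciferase reporter pseudovirus mixed with antibody dilutions and put on HT1080-ACE2 clone 14 cells for 48 h; signal relative to no-antibody wells, four-parameter fit.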
With B1 the “pseudovirus neutralization IC50” value was over 1 µg/mL.
For B2, the “pseudovirus neutralization IC50” value was over 1 µg/mL.
B3 was tested, and the “pseudovirus neutralization IC50” value was 0.0079 µg/mL.
B4 was tested, and the “pseudovirus neutralization IC50” value was 0.0502 µg/mL.
For B5, the “pseudovirus neutralization IC50” value was over 1 µg/mL.
With B6 the “pseudovirus neutralization IC50” value was over 1 µg/mL.
B7 was tested, and the “pseudovirus neutralization IC50” value was 0.00167 µg/mL.
In the case of B8, the “pseudovirus neutralization IC50” value is reported as over 1 µg/mL.
In the case of B9, the “pseudovirus neutralization IC50” value is reported as 0.921 µg/mL.
With B10 the “pseudovirus neutralization IC50” value was 0.911 µg/mL.
With B11 the “pseudovirus neutralization IC50” value was 0.00525 µg/mL.
In the case of B12, the “pseudovirus neutralization IC50” value is reported as over 1 µg/mL.
In the case of B13, the “pseudovirus neutralization IC50” value is reported as 0.00697 µg/mL.
For B14, the “pseudovirus neutralization IC50” value was over 1 µg/mL.
B15 was tested, and the “pseudovirus neutralization IC50” value was over 1 µg/mL.

What follows are binders tested against SARS-CoV-2 Omicron BA.4/5 spike pseudovirus in the same assay as above.
Description: as §1
In the case of B1, the “pseudovirus neutralization IC50” value is reported as over 1 µg/mL.
B2 was tested, and the “pseudovirus neutralization IC50” value was over 1 µg/mL.
In the case of B3, the “pseudovirus neutralization IC50” value is reported as 0.709 µg/mL.
B4 was tested, and the “pseudovirus neutralization IC50” value was 0.026 µg/mL.
For B5, the “pseudovirus neutralization IC50” value was over 1 µg/mL.
With B6 the “pseudovirus neutralization IC50” value was over 1 µg/mL.
With B7 the “pseudovirus neutralization IC50” value was 0.00339 µg/mL.
B8 was tested, and the “pseudovirus neutralization IC50” value was over 1 µg/mL.
In the case of B9, the “pseudovirus neutralization IC50” value is reported as over 1 µg/mL.
For B10, the “pseudovirus neutralization IC50” value was 0.923 µg/mL.
B11 was tested, and the “pseudovirus neutralization IC50” value was 0.0197 µg/mL.
In the case of B12, the “pseudovirus neutralization IC50” value is reported as over 1 µg/mL.
For B13, the “pseudovirus neutralization IC50” value was 0.0179 µg/mL.
In the case of B14, the “pseudovirus neutralization IC50” value is reported as over 1 µg/mL.
With B15 the “pseudovirus neutralization IC50” value was over 1 µg/mL.

Each binder was assayed against SARS-CoV-2 Wuhan-Hu-1 spike pseudovirus in the same assay as above.
Description: as §1
In the case of B1, the “pseudovirus neutralization IC50” value is reported as over 1 µg/mL.
B2 was tested, and the “pseudovirus neutralization IC50” value was 0.951 µg/mL.
In the case of B3, the “pseudovirus neutralization IC50” value is reported as 0.022 µg/mL.
For B4, the “pseudovirus neutralization IC50” value was 0.0547 µg/mL.
With B5 the “pseudovirus neutralization IC50” value was 0.0309 µg/mL.
For B6, the “pseudovirus neutralization IC50” value was over 1 µg/mL.
B7 was tested, and the “pseudovirus neutralization IC50” value was 0.00372 µg/mL.
B8 was tested, and the “pseudovirus neutralization IC50” value was over 1 µg/mL.
For B9, the “pseudovirus neutralization IC50” value was 0.682 µg/mL.
With B10 the “pseudovirus neutralization IC50” value was 0.752 µg/mL.
B11 was tested, and the “pseudovirus neutralization IC50” value was 0.00356 µg/mL.
In the case of B12, the “pseudovirus neutralization IC50” value is reported as 0.00297 µg/mL.
B13 was tested, and the “pseudovirus neutralization IC50” value was 0.0032 µg/mL.
In the case of B14, the “pseudovirus neutralization IC50” value is reported as 0.0149 µg/mL.
B15 was tested, and the “pseudovirus neutralization IC50” value was over 1 µg/mL.

Each binder was assayed against SARS-CoV-2 Wuhan-Hu-1 spike receptor-binding domain (assay: ELISA binding EC50; higher = weaker binding; ELISA of recombinant human antibody on coated antigen, from 10 µg/ml in fourfold dilutions; four-parameter fit.).
In the case of B1, the “ELISA binding EC50” value is reported as 0.00351 µg/mL.
B2 was tested, and the “ELISA binding EC50” value was 0.00547 µg/mL.
With B3 the “ELISA binding EC50” value was 0.00496 µg/mL.
For B4, the “ELISA binding EC50” value was 0.00315 µg/mL.
With B5 the “ELISA binding EC50” value was 0.00329 µg/mL.
B6 was tested, and the “ELISA binding EC50” value was 0.0042 µg/mL.
In the case of B7, the “ELISA binding EC50” value is reported as 0.00286 µg/mL.
B8 was tested, and the “ELISA binding EC50” value was 0.00791 µg/mL.
In the case of B9, the “ELISA binding EC50” value is reported as 0.00544 µg/mL.
For B10, the “ELISA binding EC50” value was 0.0043 µg/mL.
For B11, the “ELISA binding EC50” value was 0.00364 µg/mL.
B12 was tested, and the “ELISA binding EC50” value was 0.00632 µg/mL.
In the case of B13, the “ELISA binding EC50” value is reported as 0.00322 µg/mL.
For B14, the “ELISA binding EC50” value was 0.00496 µg/mL.
With B15 the “ELISA binding EC50” value was 0.00409 µg/mL.

Positions count from the first letter of the chain named. Recombinant human monoclonal antibodies (heavy:light variable regions). ELISA EC50 on the named antigen, from 10 µg/ml down; IC50 against spike pseudovirus on HT1080-ACE2 cells, 48 h; lower = stronger. Calls: IC50 above 1,000 ng/ml = non-neutralizing; EC50 above 1,000 ng/ml = non-binder.
